What was measured:
[1] = target: T1, human CD276 (B7-H3) (Homo sapiens, UniProt Q5ZPR3); experiment: Binding specificity to cells overexpressing human B7 family proteins (flow cytometry); conditions: HEK293T stably expressing the protein, 100 nM or 300 nM
T1 construct: expressed in transfected cells
T1 sequence (Q5ZPR3 29-534): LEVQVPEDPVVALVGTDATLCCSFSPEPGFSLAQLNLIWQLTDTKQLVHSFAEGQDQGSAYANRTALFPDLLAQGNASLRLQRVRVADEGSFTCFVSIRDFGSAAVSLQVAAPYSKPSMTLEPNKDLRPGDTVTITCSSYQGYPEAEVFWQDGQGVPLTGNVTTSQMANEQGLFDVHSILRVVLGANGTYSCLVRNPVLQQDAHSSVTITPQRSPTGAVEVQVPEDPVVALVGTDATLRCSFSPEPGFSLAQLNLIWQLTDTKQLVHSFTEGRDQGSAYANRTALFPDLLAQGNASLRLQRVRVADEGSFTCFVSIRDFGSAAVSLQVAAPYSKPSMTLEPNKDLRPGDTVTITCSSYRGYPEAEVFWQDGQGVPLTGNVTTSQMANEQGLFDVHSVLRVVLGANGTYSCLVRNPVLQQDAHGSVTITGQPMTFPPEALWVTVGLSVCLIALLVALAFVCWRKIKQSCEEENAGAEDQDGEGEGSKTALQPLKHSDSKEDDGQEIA

[2] = tested on: human primary T cells co-cultured with 293T-OS8-human B7H4 cells; experiment: T cell activation: blocking B7H4 inhibition on T cells, IFN-gamma ELISA; assay type: cell-based; conditions: 0.02 nM, 3 days

B1: DB1001-X2: anti-B7H4 antibody DB1001 conjugated with linker-cytotoxin X2, DAR 5.4 (conjugate)
heavy: QVQLVESGGGVVQPGRSLRLSCAASGFTFRSFGMHWVRQAPGKGLEWVAVISYDASNEYYADSVKGRFIISRDNSKDTLYLQMNSLRAGDTAVYYCAKGGALRWYFAYWGQGTLVTVSS[in this place human IgG1 constant region]
light: EIVMTQSPATLSVSPGERATLSCRASQSISSNLGWYQQKPGQAPRLLIYGASTRATGIPARFSGSGSGTEFTLTISSLQSEDFAVYYCQQYRSWPPLTFGGGTKVEIKRTVAAPSVFIFPPSDEQLKSGTASVVCLLNNFYPREAKVQWKVDNALQSGNSQESVTEQDSKDSTYSLSSTLTLSKADYEKHKVYACEVTHQGLSSPVTKSFNRGEC
binding to B7-H3 [1]: not detected | Donor 1 IFN-γ ([2]; T cells of donor 1): 6491.1 pg/mL | Donor 2 IFN-γ ([2]; T cells of donor 2): 5914.4 pg/mL | Mean IFN-γ ([2]; mean of donors 1 and 2): 6202.8 pg/mL
